Experimental data taken from patent EP4603099A1 (priority 2022, dated 2024).

Test system: IAV-GFP
Settings: read-out: IC50 (GFP level); mouse cell line LA-4 infected with IAV-GFP (m.o.i. 1) for 19 hours

trifluoromethyl tubercidin [TFMT]
IC50: 7.7 µM
